In PubChem BioAssay AID743279 (National Center for Advancing Translational Sciences (NCATS), 2014):
Among all 360,000 compounds or so, about 17,000 (4.7%) were called active. The shares of active, inactive and inconclusive entries below differ from those in the screen. Cut-off read from the data, not from the text of the source: active = activity change below about -50%; inconclusive = mostly about -30% to -49%; inactive = weaker than that.

Assay: qHTS for Inhibitors of Inflammasome Signaling: IL-1-beta AlphaLISA Primary Screen
Conditions: THP-1 LPS/ATP IL-1B secretion, 16 h; at 57.5 µM, stronger effect = lower value
Method in brief: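 Secreted IL-1B measured by AlphaLISA bead assay after 16 h compound exposure of THP-1 cells; compounds (final up to 57.5 uM) added 1 h before LPS (250 ng/mL) and ATP (1.25 mM) stimulation; lower signal means less secretion.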
% is set by controls: 0 for no effect and ±100 for the full control effect.

| Structure (SMILES) | activity change |
| --- | --- |
| Cc1[nH]c2ccc(OCc3ccccc3)cc2c1CCN1C(=O)OC(C)(C)C1(C)O (stereo not drawn) | inconclusive: -41% |
| c1ccc(CSc2nnc3ccc(-c4ccco4)nn23)nc1 | inconclusive: -38.9% |
| COc1cc(/C=C2\SC(=S)N(Nc3ncc(C(F)(F)F)cc3Cl)C2=O)ccc1O | inconclusive: -44.2% |
| Cc1cc(O)cc2c1C1CCC3(C)C(=O)CCC3C1C=C2 (stereo not drawn) | inconclusive: -32.1% |
| O=C1NC[C@H](c2ccccc2)OC(=O)[C@H](Cc2ccc(F)cc2)C/C=C\C[C@H]1CC(=O)N(CCO)Cc1ccccc1 | active: -60.2% |
| O=c1[nH]c2ccccc2n2c(=S)[nH]nc12 | inactive: 7.69% |
| CC1Cc2ccccc2N1C(=O)CN1CCC(n2nnc3cc(C(F)(F)F)ccc32)CC1 (stereo not drawn) | active: -57.8% |
| COC(=O)C1(Cc2cc(-c3ccc(Cl)cc3)no2)CCN(C(=O)OC(C)(C)C)CC1 | inconclusive: -38.9% |
| O=C(O)/C=C\C(=O)Nc1ccccc1C#Cc1ccccc1 | active: -62.2% |
| O=C1[C@H]2[C@@H](c3ccc(Cl)cc3)N3C(=O)N(c4cccc(Br)c4)C(=O)[C@@]3(Cc3ccc(Cl)cc3)[C@H]2C(=O)N1C1CCCCC1 | inconclusive: -38.6% |
| Cc1cccnc1C(NC(=O)C1CCN(CCCOc2ccc(F)cc2)CC1)c1ccccc1 (stereo not drawn) | inconclusive: -46.6% |
| COc1cccc(N2CC(=O)Nc3c(oc4nc(-c5ccccc5)cc(C)c34)C2=O)c1 | inconclusive: -34.7% |
| Cc1nnc(C)c2c(C)n(C(c3ccccc3)c3ccccc3)c(C)c12 | inconclusive: -44.6% |
| C[C@H](NC(=O)N1CCn2c1nc1ccccc12)C(=O)NCc1ccc2c(c1)OCO2 | inconclusive: -36.7% |
| CCn1c(SCc2ccccc2Cl)nc2nc3c(cc2c1=O)CCCC3 | inconclusive: -30.1% |
| O=C(c1c(Cl)nc2sccn12)N1CCN(c2cccc(Cl)c2)CC1 | inactive: 3.95% |
| CS(=O)(=O)c1nc(S(=O)(=O)c2ccc(Cl)cc2)c(N2CCC3(CC2)OCCO3)s1 | inconclusive: -47.5% |
| COCOCCn1cc(CN2CCS(=O)(=O)N(Cc3ccc(-c4cccc(CO)c4)cc3)C(C(C)C)C2=O)nn1 (stereo not drawn) | inactive: 25.2% |
| Cc1c(C)n(CCC#N)c2ccccc12 | inactive: 10.2% |
| COCCNCCCOc1ccc(Cl)cc1Br | inconclusive: -38.4% |
| CCN(C(=O)CN1C(=O)NC2(CCCc3ccccc32)C1=O)c1ccc(F)cc1 (stereo not drawn) | inactive: 4.29% |
| CN(CC1COc2ccccc2O1)C(=S)NC1CCCCC1 (stereo not drawn) | inconclusive: -34.9% |
| Cc1ccc(C)c(CN2CCC(CNC(=O)Nc3ccc(C)c(F)c3)CC2)c1 | inconclusive: -46.8% |
